For series [1], the system named is IMR32 human neuroblastoma cancer tumor cells. Nature of the series: In Vivo Activity Study III, subcutaneous xenograft.
For series [2], the system named is IMR32 human neuroblastoma (NB) cell line. In words: In Vitro Cytotoxicity Assay III (WST-8 cell viability). The format is cell-based. As to conditions: IMR32, 120 hours, WST-8, Table 5. The protocol:
(§1) Cell lines were harvested and plated into 96-well plates. […] The cell viability was determined by colorimetric WST-8 assay (Dojindo Molecular Technologies, Inc.). The OD450 value was read using the SpectraMax M5 plate reader. The values were normalized for each cell line, and IC50 values were calculated using the Prism software.
A general note: Tetrazolium assays rely on reduction of a dye to a coloured formazan, in cell work by metabolically active cells.

The test system of series [3] is NCI-H526 human SCLC cell line. The description is as above. As to conditions: NCI-H526, 120 hours, WST-8, Table 5. Format: cell-based. The protocol: as §1
The subject of the next series is NCI-H1048 SCLC cell line. Nature of the series: In Vitro Cytotoxicity Assay II (WST-8 cell viability). The format is cell-based, human. As to conditions: NCI-H1048, 120 hours, WST-8, Table 4. The protocol: (§2) Cell lines were harvested and plated into 96-well plates. […] The cell viability was determined by colorimetric WST-8 assay (Dojindo Molecular Technologies, Inc.). The OD450 value was read using the SpectraMax M5 plate reader. The values were normalized for each cell line, and IC50s were calculated using the Prism software.

A further series relates to NCI-H526 SCLC cell line. The description is as above. Format: cell-based, human. As to conditions: NCI-H526, 120 hours, WST-8, Table 4. The protocol: as §2
Series [4] has as its system IMR32 human neuroblastoma (NB) cell line. Nature of the series: In Vitro Cytotoxicity Assay I (WST-8 cell viability). As to conditions: IMR32, 120 hours, WST-8, Table 3. Format: cell-based. The protocol:
(§3) The cell viability was determined by colorimetric WST-8 assay (Dojindo Molecular Technologies, Inc.). The OD450 value was read using the SpectraMax M5 plate reader. The values were normalized for each cell line, and IC50 values were calculated using the Prism software.

The subject of series [5] is NCI-H526 human SCLC cell line. The description is as above. The format is cell-based. As to conditions: NCI-H526, 120 hours, WST-8, Table 3. On the procedure:
as §3

A further series has as its system NCI-H146 SCLC cell line. In words: In Vitro Cytotoxicity Assay II (WST-8 cell viability). Format: cell-based. As to conditions: NCI-H146, 120 hours, WST-8, Table 4. On the procedure: as §2
The next series has as its system NCI-H82 SCLC cell line. Described as above. As to conditions: NCI-H82, 120 hours, WST-8, Table 4. Format: cell-based. On the procedure:
as §2

In series [6] the test system is human neuroblastoma cell lines (KPNRTBM1, NB1, CHP134, and IMR32). In words: In Vitro Cytotoxicity Assay IV, summary over neuroblastoma lines. Format: cell-based. As to conditions: KPNRTBM1, NB1, CHP134, IMR32, 5 days. The protocol: (§4) Then cell viability was detected with the Cell Counting kit-8 (Dojindo) or CellTiter-Glo® reagent (Promega). The values were normalized to the untreated control for each cell line, and the IC50s were calculated using Prism software.

A further series relates to RH41 sarcoma cell line. In words: In Vitro Cytotoxicity Assay IV (Cell Counting kit-8 or CellTiter-Glo). As to conditions: RH41, 5 days, Table 6. Format: cell-based. On the procedure:
as §4

Series [7] concerns Aska-SS sarcoma cell line. The series is described as above. The format is cell-based. As to conditions: 5 days, Table 6. The protocol: as §4
In series [8] the test system is IMR32 human neuroblastoma cell line. The description is as above. Format: cell-based. As to conditions: IMR32, 5 days, Table 6. The protocol:
as §4

The subject of series [9] is human NCIH660 neuroendocrine prostate cancer (NEPC) cell line. The description is as above. The format is cell-based. As to conditions: NCIH660, 5 days. On the procedure: as §4
Series [10] has as its system SJCRH30 sarcoma cell line. The series is described as above. As to conditions: SJCRH30, 5 days, Table 6. Format: cell-based. On the procedure: as §4
In series [11] the test system is NB1 human neuroblastoma cell line. The description is as above. Format: cell-based. As to conditions: NB1, 5 days, Table 6. The protocol:
as §4

Series [12] has as its system CHP134 human neuroblastoma cell line. The series is described as above. As to conditions: CHP134, 5 days, Table 6. The format is cell-based. On the procedure:
as §4

The test system of series [13] is 3 sarcoma cell lines (Aska-SS, SJCRH30, and RH41). In words: In Vitro Cytotoxicity Assay IV, summary over sarcoma lines. Format: cell-based. As to conditions: SJCRH30, RH41, 5 days. The protocol: as §4
For series [14], the system named is NCI-H660 human prostate cancer tumor cells. Nature of the series: In Vivo Activity Study I, subcutaneous xenograft. More on the design: species or system male BALB/c nude mice. As to conditions: single dose 10 mg/kg IV.
Series [15] concerns NCI-H1048 human lung cancer cells. In words: In Vivo Activity Study II, subcutaneous xenograft. More on the design: species or system female BALB/c nude mice. As to conditions: single dose 10 mg/kg IV.

Read-outs that look alike come from different tables or passages of the source.

B1: Conjugate (VIII) (conjugate)
heavy: QVQLVESGGGVVQPGRSLRLSCAASGFTFSSFGMHWVRQAPGKGLEWVAYISSGSFTIYYADSVKGRFTISRDNSKNTLYLQMNSLRAEDTAVYYCARMRKGYAMDYWGQGTLVTVSSASTKGPSVFPLAPSSKSTSGGTAALGCLVKDYFPEPVTVSWNSGALTSGVHTFPAVLQSSGLYSLSSVVTVPSSSLGTQTYICNVNHKPSNTKVDKKV[letters of human IgG1 Fc with L234A L235A N297A (EU numbers) not shown]
light: DVVMTQSPLSLPVTLGQPASISCRSSQIIIHSDGNTYLEWFQQRPGQSPRRLIYKVSNRFSGVPDRFSGSGSGTDFTLKISRVEAEDVGVYYCFQGSHVPHTFGQGTKVEIKRTVAAPSVFIFPPSDEQLKSGTASVVCLLNNFYPREAKVQWKVDNALQSGNSQESVTEQDSKDSTYSLSSTLTLSKADYEKHKVYACEVTHQGLSSPVTKSFNRGEC
The TGI is the reduction of tumour growth relative to the control group. A higher TGI goes with a stronger effect on the tumour. Broadly, the IC50 is the concentration needed to halve the response being measured. B1: the gross clinical abnormalities entry in series [1] (single IV dose, 3 mg/kg (Conjugate (VIII)) or 6.6 mg/kg (Conjugate (IX)), study period) was “No other gross clinical abnormalities were observed”; in [14] (study period), “No other gross clinical abnormalities were observed”. Further, the mean tumor volume in series [1] (single dose 3 mg/kg IV, day 28 post dosing) turned out to be 0 mm^3. Besides, the TGI in series [1] (single dose 3 mg/kg IV, day 28 post dosing, P<0.001 vs. control) was 100%. In addition, the IC50 was found to be 0.00228 nM in [2]; 0.00614 nM in [3]; 0.00118 nM with NCI-H1048 SCLC cell line; 0.0277 nM with NCI-H526 SCLC cell line; 0.00242 nM in series [4]; 0.00458 nM in series [5]. Besides, the IC50 in the series with NCI-H146 SCLC cell line was 0.0174 nM; with NCI-H82 SCLC cell line it was 0.0723 nM; in the series on RH41 sarcoma cell line, 0.0202 nM; in series [7] it was 0.0799 nM; in [8], 0.123 nM; in [9] (rounded value, read-out: IC50 in NCIH660 NEPC cell line), 3e-10 M. Moreover, the half-maximal inhibitory concentration (IC50) in series [9] (NEPC, Table 6, read-out: In Vitro Cytotoxicity IC50 Values (M) NCIH660) turned out to be 3.22e-10 M; in series [10], 0.0809 nM; in [11] it was 0.00249 nM; in series [12] it was 0.0149 nM. Also, the “IC50 values range over human neuroblastoma cell lines” value in [6] is listed as 1.23×10^−10 to 2.35×10^−13 M. Moreover, the “IC50 values range over 3 sarcoma cell lines” value in series [13] is reported as 8.09 to 2.02×10^−11 M. Also, in series [14], the “antitumor activity against NCI-H660 xenograft (comparison, FIG. 5A)” value is recorded as “slightly superior to Compound (IV)—antibody CD56-B DAR8 conjugate”.

B2: Antibody CD56-B: anti-CD56 antibody, heavy chain SEQ ID NO: 12, light chain SEQ ID NO: 11 (antibody)
heavy: B1 heavy
light: B1 light
modifications: Heavy chain of CD56-B; Light chain of CD56-A and CD56-B
Turning to B2, the IC50 in series [4] and in series [5] was more than 20 nM each time.

B3: Conjugate (VI): Compound (III) conjugated to anti-CD56 antibody CD56-A, DAR 8 (conjugate)
heavy: QVQLVESGGGVVQPGRSLRLSCAASGFTFSSFGMHWVRQAPGKGLEWVAYISSGSFTIYYADSVKGRFTISRDNSKNTLYLQMNSLRAEDTAVYYCARMRKGYAMDYWGQGTLVTVSS[letters of human IgG1 constant region not shown]
light: B1 light
Regarding B3, the 50% inhibitory concentration (IC50) in the series with NCI-H1048 SCLC cell line came to 0.00542 nM; in the series on NCI-H526 SCLC cell line, 0.0548 nM; in the series with NCI-H146 SCLC cell line it was 0.0321 nM; in the series on NCI-H82 SCLC cell line it was 0.115 nM. The molecule further returned a mean tumor size in [15] (day 36 post tumor inoculation) of 73 mm^3. The inhibition of tumour growth (TGI) in series [15] (day 36 post tumor inoculation, P<0.001 vs. control) amounted to 97.5%. Moreover, the gross clinical abnormalities result in series [15] (study period) was “No other gross clinical abnormalities were observed”.

The values above are taken from patent US20260131015A1, “NEODEGRADER CONJUGATES” (priority 2022, published 2026).
